The whole screen tested about 340,000 compounds, of which about 6,900 (2%) were called active. Cut-off read from the data, not from the text of the source: active = inhibition above about 30%; inactive = below that, where a call was filed. Only a part is listed here, and it is no random draw. Where no call is shown, the source filed none.
Target: D(2) dopamine receptor (Homo sapiens) (UniProt P14416)
Experiment: HTS Assay for Allosteric Antagonists of the Human D2 Dopamine Receptor: Primary Screen for Antagonists; note: 0% is about no effect
Conditions: HEK293 TREx D2 cells, calcium flux, dopamine EC80; at 10 µM; stronger effect = higher value
Procedure, shortened: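 Overnight-induced (tetracycline, 30 C) HEK293 T-REx cells carrying force-coupled D2 receive a no-wash calcium dye, then compound, then EC80 dopamine at 180 s; signals are read kinetically throughout.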

Sequence of UniProt P14416 (P14416 whole entry, looked up): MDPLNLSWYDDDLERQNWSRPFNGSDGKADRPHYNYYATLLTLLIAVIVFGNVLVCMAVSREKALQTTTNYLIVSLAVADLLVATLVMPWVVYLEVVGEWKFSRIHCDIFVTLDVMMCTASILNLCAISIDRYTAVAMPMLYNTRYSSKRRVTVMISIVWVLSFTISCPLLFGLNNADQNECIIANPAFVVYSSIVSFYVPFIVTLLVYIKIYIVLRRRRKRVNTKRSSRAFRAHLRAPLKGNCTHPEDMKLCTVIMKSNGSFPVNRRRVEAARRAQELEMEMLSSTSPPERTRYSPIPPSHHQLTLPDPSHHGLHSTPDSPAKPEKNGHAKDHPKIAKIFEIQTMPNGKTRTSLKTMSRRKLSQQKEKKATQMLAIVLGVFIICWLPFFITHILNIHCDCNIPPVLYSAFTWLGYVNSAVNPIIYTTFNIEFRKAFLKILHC

Structure (SMILES)	inhibition
CCOC(=O)c1cc(-c2ccc(F)cc2)n(CCC(=O)Nc2ccccc2OC)c1C	2.82%
COC(=O)c1ccc2nc(C)cc(Nc3ccc(O)cc3)c2c1	-0.837%
COc1ccc(-c2cn[nH]c2-c2ccc(OCc3ccc(F)cc3)cc2O)cc1OC	active: 44.7%
COc1ccc(NC(=O)Cn2c(=O)n(-c3ccc(Cl)cc3)c(=O)c3c(C)c(C(=O)N(C)C)sc32)cc1Cl	-1.85%
CC(Sc1ncc(S(=O)(=O)c2ccc(C(C)C)cc2)c(N)n1)C(=O)Nc1ccccc1 (stereo not given)	5.98%
Cc1ccc(CSc2nc(=O)c3c(C)cc(C)nc3n2C2CC2)cc1	-8.22%
COC(=O)CS(=O)(=O)c1ccsc1C(=O)Nc1ccc(F)cc1	active: 38.3%
COc1ccc(NC(=O)c2c(NCc3ccc(C)o3)sc3c2CCC(C)C3)cc1 (stereo not given)	-2.9%
CC1CN(C(=O)CCC(=O)NCc2cccs2)c2ccccc2O1 (stereo not given)	15.5%
Cc1ccc(S(=O)(=O)c2cn(C)c3cc(N4CCN(c5ccccc5)CC4)c(F)cc3c2=O)cc1	25.4%
CCOC(=O)c1ccc(NC(=O)c2nc(S(=O)(=O)Cc3ccccc3)ncc2Cl)cc1	-9.81%
CCOc1ccccc1NC(=O)C1CCN(S(=O)(=O)c2ccc(Br)cc2)CC1	-5.45%
Cc1ccc(-n2nc(C(=O)N3CCCCC3C)c(=O)n(C)c2=O)cc1 (stereo not given)	-0.466%
Cc1nn(CCCC(=O)NCc2ccccc2)c(=O)c2c1sc1ccccc12	23.5%
CC(=O)c1cccc(N2C(=NC(=O)CCc3ccccc3)SC3CS(=O)(=O)CC32)c1 (stereo not given)	active: 31.8%
COc1ccc(Cn2nnc3c(=O)[nH]c(C4CCCN(C(=O)c5ccccc5Cl)C4)nc32)cc1OC (stereo not given)	3.55%
Cc1ccc(C)c(NC(=O)C(=O)NCC(c2cccnc2)N2CCN(c3ccc(F)cc3)CC2)c1 (stereo not given)	-20.7%
N#Cc1cc2c(=O)n3ccccc3nc2n(-c2nnc(SCc3ccc(F)cc3)s2)c1=O	-7.66%
O=C(NCCCN1CCN(c2ccc(F)cc2)CC1)c1cc2c(s1)-c1ccccc1OC2	-13.8%
CCOC(=O)c1ccc2c(c1)N(CC(=O)Nc1cc(F)ccc1F)C(=O)c1ccccc1S2	-8.77%

Structure (SMILES)	inhibition
CC1=C(C(N)=O)C(c2cccc(C)c2)n2nc(-c3ccc(Cl)cc3)nc2N1 (stereo not given)	-0.579%
CSc1ccccc1NC(=O)C1=CC(c2ccc3c(c2)OCO3)=NS(=O)(=O)N1C	7.21%
CCOc1ccc(-c2nc3c(c(CC)nn3-c3ccccc3)c3cc(OC)c(OC)cc23)cc1	-7.13%
Cc1cccc(-c2nc3cc(NC(=O)Cc4ccc(Cl)cc4)ccc3o2)c1	2.59%
CCOC(=O)CCN(Cc1ccccc1)S(=O)(=O)c1csc(C(N)=O)c1	-5.41%
CCN(C(=O)Cn1nc2c3cc(F)ccc3n(Cc3cccc(C)c3)cc-2c1=O)c1cccc(C)c1	0.778%
COc1ccc(C(CNC(=O)c2cc(F)c(F)c(F)c2F)N2CCOCC2)cc1 (stereo not given)	active: 39.8%
Cn1ccc2cc(S(=O)(=O)N3CCCN(C(=O)Nc4ccc(Br)cc4)CC3)ccc21	19.8%
Cc1ccc(Nc2c(-c3ccc(N(C)C)cc3)nc3ccccn23)cc1	0.696%
CCOc1ccccc1C(=O)N(Cc1ccc(N(C)C)cc1)Cc1ccco1	-4.66%
O=C(c1cccc(Cl)c1)N1CCC(c2nc3c(nnn3Cc3ccc(F)cc3F)c(=O)[nH]2)CC1	-19.7%
Cc1ccc(-c2nnc(Nc3ccc(Cl)cc3)c3ccccc23)cc1S(=O)(=O)NCC1CCCO1 (stereo not given)	-8.81%
COc1cc(C(=O)Nc2ccccc2OCc2cc(=O)n3cc(C)sc3n2)cc(OC)c1OC	-3.08%
COc1ccc(C(=O)c2cn(Cc3ccccc3F)c3ccc(F)cc3c2=O)cc1	20.7%
COc1ccc(-c2[nH]c(-c3ccc(OC)c(OC)c3)nc2SCC(=O)Nc2ccccc2)cc1	-14.7%
Cc1cccc(NC(=O)c2oc3ccc(S(=O)(=O)N4CCCCC4)cc3c2C)c1C	-12%
COc1ccc(CNC(=O)CN(C)c2nn3c(=O)cc(C)nc3s2)cc1	-6.57%
COc1cccc(C2=NN(S(C)(=O)=O)C(c3cn(-c4ccccc4)nc3-c3cccs3)C2)c1 (stereo not given)	2.01%
CC(=O)c1ccc(N2CCN(C(=O)CS(=O)(=O)c3cccc4nsnc34)CC2)cc1	-14.3%
COc1ccccc1NC(=O)N1CC=C(c2c[nH]c3ccccc23)CC1	7.03%

Structure (SMILES)	inhibition
Cc1cc(=O)[nH]c2nnc(SCCC(C)C)n12	9.31%
Cc1ccc(-c2noc(-c3ccc(NCC4CCCO4)c([N+](=O)[O-])c3)n2)cc1 (stereo not given)	-3.34%
COc1ccc(CCNC(=O)CSc2nnc(-c3ccc(C)cc3)c(-c3ccc(C)cc3)n2)cc1OC	-1.31%
CCC(=O)N1CCc2cc(S(=O)(=O)NC(C(=O)NCc3ccccc3Cl)C(C)C)ccc21 (stereo not given)	11.8%
Cc1nn(C(=O)c2ccccc2)c(C)c1S(=O)(=O)N1CCOCC1	-16.1%
CC1=C(C(=O)NCCN2CCN(C)CC2)C2(CCC(C)CC2)OC1=O (stereo not given)	active: 61.5%
COc1ccc(CNC(=O)c2ccc(-c3nc(CSc4ccc(C)cc4)c(C)o3)cc2)cc1OC	1.23%
Cc1c(C(=O)NCc2ccccc2Cl)sc2nc(-c3ccc(F)cc3)cn12	24.6%
CCOC(=O)CN(Cc1ccccc1)C(C(=O)NC1CCCCC1)c1ccc(C)cc1 (stereo not given)	-9.31%
CCOC(=O)C1CCN(C(=O)Cn2c(-c3cccs3)cc3cc(Cl)ccc32)CC1	-3.45%
COC(=O)C1Sc2[nH]c(=O)sc2C(c2ccc(Cl)cc2)C1C(=O)OC (stereo not given)	active: 37.6%
Cc1nnnn1CC(=O)Nc1ccccc1[N+](=O)[O-]	active: 36.5%
CCOc1ccccc1CNS(=O)(=O)c1ccc2c(c1)C(C)(C)C(=O)N2C	0.822%
COc1ccc(N2CCN(CC(O)COc3ccc(C)cc3C)CC2)cc1 (stereo not given)	-23.7%
Cc1ccc(CNC(=O)CCS(=O)(=O)c2cc3c(cc2Cl)NC(=O)CO3)cc1	12.2%
CC1=C(c2ccc(C)cc2)S(=O)(=O)NC1=NCCCN1CCN(c2cc(C)ccc2C)CC1	17.1%
Cc1ccc(Cl)cc1N1CCN(C(=O)CN2C(=O)COc3ccc(S(=O)(=O)N4CCC(C)CC4)cc32)CC1	12.5%
CCOCCCNCc1ccc(OC)c(OC)c1	active: 36.2%
COc1ccc(N2CCN(c3ncnc4c3cnn4-c3ccc(C)c(Cl)c3)CC2)cc1	-17.7%
CC(C)(C)C(=O)NC1(C(F)(F)F)NC(=O)N(c2ccc(F)cc2)C1=O (stereo not given)	12.8%

Reference: PubChem BioAssay AID485344 (National Center for Advancing Translational Sciences (NCATS), 2010)
